Data taken from the supplement of paper PMC3334620.
Over roughly 33,000 sequences, “E-score (-0.5 to 0.5)” has its median near -0.053; the highest 2% begin near 0.37. Some of the results follow.

molecular target: Hap1 (UniProt P0CE41); assay: PBM E-score (8-mer binding enrichment) (E-score (-0.5 to 0.5)); higher = stronger / more preferred TF binding; most listed sequences are background and not binding sites; conditions: protein concentration: 200 nM; construct: GST-DNA-binding domain
Description: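 Universal 'all 10-mer' protein binding microarrays (Agilent AMADID 015681) probed with GST-tagged S. cerevisiae TFs (full-length or DBD) made by in vitro transcription/translation (PURExpress), about 100-200 nM. Bound TF was detected with fluorescent anti-GST. Each ungapped 8-mer (which stands for itself and its reverse complement) is scored by the PBM enrichment score (E-score), a modified Wilcoxon-Mann-Whitney statistic from -0.5 to +0.5, computed with the Universal PBM Analysis Suite. Scale: above 0.35 generally sequence-specific binding.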

Chain of UniProt P0CE41 (P0CE41 whole entry, the tested form may be a part): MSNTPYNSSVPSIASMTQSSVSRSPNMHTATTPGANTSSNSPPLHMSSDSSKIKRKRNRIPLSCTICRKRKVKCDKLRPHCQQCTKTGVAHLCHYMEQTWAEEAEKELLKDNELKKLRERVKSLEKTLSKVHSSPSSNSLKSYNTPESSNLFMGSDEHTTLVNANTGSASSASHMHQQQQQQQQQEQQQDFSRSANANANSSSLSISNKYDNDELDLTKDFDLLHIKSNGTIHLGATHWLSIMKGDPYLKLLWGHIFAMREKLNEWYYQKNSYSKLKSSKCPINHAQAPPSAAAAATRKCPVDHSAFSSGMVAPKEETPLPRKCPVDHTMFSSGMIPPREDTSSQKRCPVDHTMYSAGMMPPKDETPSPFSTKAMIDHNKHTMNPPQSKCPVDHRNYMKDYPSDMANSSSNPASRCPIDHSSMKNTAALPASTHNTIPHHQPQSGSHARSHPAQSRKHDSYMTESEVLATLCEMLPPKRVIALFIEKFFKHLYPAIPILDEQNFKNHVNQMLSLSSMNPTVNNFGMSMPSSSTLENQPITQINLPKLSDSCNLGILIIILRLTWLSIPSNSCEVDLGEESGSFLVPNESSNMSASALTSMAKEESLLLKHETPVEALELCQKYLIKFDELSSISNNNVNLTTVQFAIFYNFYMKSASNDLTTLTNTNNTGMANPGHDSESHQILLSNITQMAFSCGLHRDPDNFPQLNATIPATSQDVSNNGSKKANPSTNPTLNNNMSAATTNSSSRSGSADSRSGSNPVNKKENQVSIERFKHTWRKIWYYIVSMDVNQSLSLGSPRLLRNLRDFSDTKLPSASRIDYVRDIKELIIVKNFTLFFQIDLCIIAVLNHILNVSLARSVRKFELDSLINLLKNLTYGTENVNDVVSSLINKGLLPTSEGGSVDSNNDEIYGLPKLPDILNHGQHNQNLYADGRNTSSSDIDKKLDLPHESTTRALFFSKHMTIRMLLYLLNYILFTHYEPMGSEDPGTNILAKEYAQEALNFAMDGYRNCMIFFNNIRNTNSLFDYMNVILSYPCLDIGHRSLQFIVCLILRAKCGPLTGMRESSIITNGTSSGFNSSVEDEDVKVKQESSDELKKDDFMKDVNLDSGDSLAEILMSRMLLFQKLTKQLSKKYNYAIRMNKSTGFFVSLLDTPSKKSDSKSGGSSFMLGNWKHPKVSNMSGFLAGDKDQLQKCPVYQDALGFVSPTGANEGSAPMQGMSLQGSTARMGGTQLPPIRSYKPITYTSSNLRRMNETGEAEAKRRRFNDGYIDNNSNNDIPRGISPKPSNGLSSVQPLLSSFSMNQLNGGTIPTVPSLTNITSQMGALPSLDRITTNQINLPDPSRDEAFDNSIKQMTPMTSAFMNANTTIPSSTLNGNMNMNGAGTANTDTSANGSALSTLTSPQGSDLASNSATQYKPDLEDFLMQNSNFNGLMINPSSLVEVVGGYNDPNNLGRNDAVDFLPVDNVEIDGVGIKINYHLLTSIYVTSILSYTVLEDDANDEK

Sequence	PBM E-score
GTCTCGCA	-0.267
GAAATAGA	-0.0205
GGCCCCCC	0.0493
CAGTCGTA	0.012
ACATAGGC	-0.0315
CTTCTACC	-0.0795
CCGATGTA	0.287
ATAGCCAC	-0.0645
TATAGAAA	-0.199
AAAGTACC	-0.129
CCTCCGCG	0.198
AGACCGTC	0.0627
GTTCGCAA	-0.0201
AATATCAG	-0.0864
ACTATAGT	-0.0199
CTGCGGGC	0.215
CTGCGGCC	0.203
CTTAAAAC	0.0669
CATTAAAG	-0.212
CGCCGGCG	0.422
CGCTAGAC	-0.137
AATCGGGT	0.286
ACAACACC	-0.133
AAAATGAG	-0.207
CACAGGGG	-0.347

Sequence	PBM E-score
CACTGTGC	-0.00691
AATGACGG	0.167
TGCGAACA	-0.0771
GGGGAAGA	-0.148
ATCGCTAG	-0.00216
ACCATCCC	0.0956
CTTCCCTA	-0.131
ACTCCAAA	-0.255
AGTTGCCA	-0.163
CCTGTCGA	-0.198
CTGGTAAC	-0.0808
AGCCGCTG	0.0301
ACCCGTGA	0.0171
CACCTTCA	-0.0777
CTGCTAAC	-0.13
ACCACACC	0.119
AAGGAGGT	-0.00559
GGGACCCC	-0.0966
CTCCTCGC	-0.202
AGCCGCTC	0.161
ATATGCGG	0.136
CAAGTACC	0.0674
AGCGCCAT	-0.113
ACGGAGTG	0.242
AGATCCCT	-0.163

Sequence	PBM E-score
AACTCTAG	-0.336
AGGTCGGC	0.263
AGTATTTC	0.116
GATTCTCC	0.104
ATGACCGG	0.276
TATGTGGA	-0.0574
CCCCTGAC	-0.0366
AAACTCGT	-0.144
CCCTTCAA	-0.134
ACTCGAGC	-0.0948
TAGGAGAA	-0.341
AAATCGGT	0.246
AAACTGAG	-0.18
AACGATCA	-0.183
CAGTTAGC	-0.15
GTGGCCGA	0.263
GTGGATTA	-0.0512
AGCAGGAC	-0.0234
CACTCAGA	-0.156
GCACCCAC	-0.0345
AATCTGGG	-0.175
ATAAGCGG	0.118
AAGGGGAA	-0.239
AGCTAGGA	-0.253
AACAGACT	-0.15

Sequence	PBM E-score
ACTAGGAT	-0.125
CCCGTACC	0.155
AAGACAGT	0.01
AGTAGAAG	-0.263
ACAGGGGC	-0.163
CAGTGGTA	-0.222
CCCCGAAC	0.291
GTGGTTTA	0.0602
CAGAGCGA	0.0204
AGGGGCGA	-0.0313
TTATTCAA	-0.08
CCTCGCAA	-0.159
ACATCTAA	-0.117
GCGCGCCA	0.0961
AACCCTCG	-0.0146
AGTCAAAT	-0.31
ATGATAGG	-0.126
AGGGTCCA	0.059
GCATACGC	-0.0271
AGCAGTAA	-0.0328
CGCTTCAC	-0.227
GGGGAACA	0.0352
ATACCCGA	0.398
AGAGTAGG	-0.0868
ACTCTTGC	-0.101

Sequence	PBM E-score
CGACCCAA	-0.023
GAATTGTC	-0.0245
ATCTGAGG	-0.16
CTCCCGCC	0.137
AGCAGAGG	-0.325
ACGTTCTC	-0.142
CAGTTACG	-0.117
TCCAGAAA	-0.23
ATGCTATC	-0.00371
CTAAGTGA	0.0523
ACTGTGAA	-0.234
CAAGGCGA	-0.16
CACTTGCA	-0.255
GGTGAGAA	0.0984
ACTCGATC	-0.0127
AGGAAACG	-0.124
CCCGTAAC	0.149
TGAGGCAA	-0.183
ACTCTATG	-0.063
ACGGTCAG	-0.109
CTCCGGAG	0.467
ACATTGAG	-0.0854
GACTTAGA	-0.278
CACCCTTC	0.0613
TTACATAA	-0.113

Sequence	PBM E-score
TCCGCGGA	0.342
CAACAAAA	-0.215
AAACGCCC	0.263
ATGCATCA	-0.0887
CACAACTC	-0.108
CAAACAAG	0.0314
GCATCTCA	-0.259
ATACAAGG	0.00348
GCAGCGCA	-0.198
CTTTATCA	-0.226
ACCGGCAA	0.272
GACGACAC	-0.0269
CAGATGAA	-0.3
AACAGCCG	0.149
ACAGCATA	-0.104
AGTTTACC	0.0378
CAAAGGGG	-0.115
AGATTCAG	-0.117
CCTAGGCC	-0.148
AGCCAGCG	-0.122
CGGAGTGA	0.267
ACTCTCCT	-0.0997
AATGTCAG	-0.181
CAAAGATC	-0.0994
ACTCTCTA	-0.271

Sequence	PBM E-score
GCCGACGC	0.245
ATCCTAAT	-0.118
ATCATCTA	-0.0863
ACCCAGCA	0.00442
CACCCAGA	-0.205
CCTTGTTC	-0.052
CATTGGCG	-0.188
ATAGTGAC	-0.0461
GCAGCGAA	-0.0326
ATTCTAGG	-0.167
AGGAACAG	-0.352
CTACAGAC	-0.2
ATGTTTTC	-0.00321
ATCAAATA	-0.0946
GATGTGCA	-0.104
ATGGTTGC	-0.211
ATGACGTA	-0.199
CAAGAACG	-0.0631
ACTTAACA	-0.0435
ACAAAGCA	-0.0801
AGCTCACG	-0.0873
CGCTACAC	0.053
